Results taken from PubChem BioAssay AID1963871 (Molecular Pharmacology Branch, DTP, NCI, 2024).
A number of entries come with more than one value. The other results are left out here. There may be further records. Values given together repeat one measurement (runs, samples, wells, individuals or studies). A date in brackets names the month of the test. Brackets with × say how often a value occurs here.

Tested on: KRAS-mutant PDC multicell tumor spheroid viability
Experiment: Anticancer human tumor 521955-158-R2-J5-PDC patient-derived pancreatic carcinoma cell line growth inhibition [KRAS2]
Conditions: for viability, T/C: stronger effect = lower value; for IC50: compound alone
From the text: Multicellular complex tumor spheroid response to RAS pathway inhibitors in combination with a targeted agents in patient-derived cell lines with oncogenic KRAS variants from multiple cancer types
A high-throughput screen of multi-cell type tumor spheroids was designed to identify active combinations of targeted small molecules and KRAS pathway inhibitors. Complex spheroids include a stromal component modeled by human endothelial cells (HUVEC) and fibroblasts modeled by human mesenchymal stem cells (MSCs). The concentration ranges selected for each drug and investigational agent were based upon clinically achievable concentrations if the clinical Cmax of the agent was known.
Compounds. The drugs and investigational agents: BI-3406 (NSC825286), BAY-293 (NSC824723), batoprotafib (TNO155; NSC825523), sotorasib (AMG 510; NSC818433), MRTX1257 (NSC819558), elimusertib (BAY 1895344; NSC800525), molibresib (GSK525762; NSC774829), temuterkib (LY3214996; NSC803410), venetoclax (NSC766270), alisertib (NSC759677), olaparib (NSC753686), talazoparib (NSC767125), erdafitinib (NSC781556), ipatasertib (NSC767898), cabozantinib (NSC761068), nintedanib (NSC756659), abemaciclib (NSC768073), docetaxel (NSC628503), trametinib (NSC758246), and sapanisertib (NSC764658) were obtained from the National Cancer Institute (NCI) Developmental Therapeutics Program Chemical Repository. The FDA-approved anticancer drug set is available from the Developmental Therapeutics Program. […] The stock solutions were prepared in dimethyl sulfoxide (DMSO, Sigma-Aldrich, St. Louis, MO, cat. D2650) at 800-fold the tested concentration and stored at -70 degrees C prior to their use. All drugs and investigational agents were tested over a range starting from a high concentration at or near the clinical Cmax and decreasing in half-log increments. If the clinical Cmax for an agent had not been determined, the highest concentration tested was 10 microM.
Cell Culture. All cells were maintained in an incubator at 37 degrees C and 5% CO2 with 95% humidity. The PDC lines were cultured according to standard operating procedures established by the NCI PDMR (https://pdmr.cancer.gov/sops/default.htm). Briefly, all PDCs were thawed and cultured in Matrigel-coated flasks prepared with a working solution of 1X Ham's F-12 nutrient mix, without supplementation (Invitrogen, Waltham, MA, cat. 11765054), 100 U/mL penicillin-streptomycin (Invitrogen, cat. 15140122), and 2.5% Matrigel (Corning Inc., Corning, NY, cat. 354248) for the first three passages. All PDCs were cultured in complete DMEM/F-12 media containing advanced DMEM/F-12 (Invitrogen, cat. 12634028), 4.9% defined fetal bovine serum, heat inactivated (HyClone Laboratories Inc., Logan, UT, cat. SH30070.03HI), 389 ng/mL hydrocortisone (Sigma-Aldrich, cat. H4001), 9.7 ng/mL human EGF recombinant protein (Invitrogen, cat. PHG0313), 23.4 microg/mL adenine (Sigma-Aldrich, cat. A2786), 97.3 U/mL penicillin-streptomycin (Invitrogen, cat. 15140122), 1.9 mM L-glutamine (Invitrogen, cat. 25030081), and 9.7 microM Y-27632 dihydrochloride (Tocris Bioscience, Bristol, United Kingdom, cat. 1254). The PDCs were cultured in complete DMEM/F12 media without 9.7 microM Y-27632 dihydrochloride for at least two passages prior to the screen. The established cell line HOP-62 was cultured in RPMI 1640 medium, HEPES (Invitrogen, cat. 22400105) with 10% defined fetal bovine serum (HyClone Laboratories Inc., cat. SH30070.03) and 2 mM L-glutamine (Invitrogen, cat. 25030081). The pooled donor HUVEC were cultured in endothelial cell growth medium 2 (PromoCell, Heidelberg, Germany, cat. C-22011) and the hMSC were cultured in mesenchymal stem cell growth medium 2 (PromoCell, cat. C-28009). For all experiments, HUVEC and hMSC were used at passages </=5, while the malignant cell lines were used at passages </=15. […]
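Further: viability read after seven days of drug exposure.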

| Structure (SMILES) | viability, T/C (compound alone 0.1 µM) | viability, T/C (compound alone 0.316 µM) | viability, T/C (compound alone 1 µM) | viability, T/C (compound alone 3.16 µM) | viability, T/C (compound alone 10 µM) | IC50 (run of 08/19/2021) | further results |
| --- | --- | --- | --- | --- | --- | --- | --- |
| CC1COCCN1c1cc(-c2ccnn2C)c2ccnc(-c3ccn[nH]3)c2n1 (stereo unspecified) |  |  |  |  |  |  | viability, T/C (compound alone 0.0316 µM): 55.9, 52.3, 60.6, 40.6, 31.4% |
| CN(C)C/C=C/C(=O)Nc1cc2c(Nc3ccc(F)c(Cl)c3)ncnc2cc1O[C@H]1CCOC1 | 76.9, 72.7, 85.9, 86, 97.8% |  |  |  |  |  |  |
| CC1OCC2(CCN(c3cnc(Sc4ccnc(N)c4Cl)c(N)n3)CC2)C1N (stereo unspecified) | 40.3, 65.7, 72.9, 72.1, 70.2, 69.6 (2×), 70.5, 74, 66.2, 65.3% [2021-08] and 83.9, 94.5, 74.2, 75.8, 71.3, 77.8, 71.9, 70.5% [2021-09] | 43.1, 77, 51.5, 49.7, 67.2, 62.7, 57.2, 54.7, 59.6, 68.1, 64.5% [2021-08] and 70.4, 86.7, 76.9, 67.2, 69.2, 80.8, 74, 83.5% [2021-09] | 70.5, 107, 98.2, 60.3, 55.3, 54.8, 43.2, 47.7, 53.8, 58, 58.1% [2021-08] and 65.1, 71, 61, 69.5, 66.3, 65.8, 65.5, 70% [2021-09] | 33.1, 40.3, 40.9, 57.3, 57.4, 54, 36.7, 44.1, 48.6, 56.3, 48% [2021-08] and 58.5, 72.8, 70.3, 67.8, 67.2, 63.2, 53.4, 71.5, 64.3% [2021-09] | 36.9, 96.7, 46.7, 51.5, 45.6, 47.3, 29.7, 40.4, 29.1, 45.8, 43.8% [2021-08] and 61.7, 77.9, 64.5, 78.5, 53.1, 61.5, 38.4, 51.8, 58.3% [2021-09] | 1.1 µM, > 10 µM, 2.5 µM, 5.86 µM, 5.61 µM | IC50 (run of 08/26/2021): 587 nM, 678 nM, 1.52 µM, 5.97 µM, 3.46 µM |
| COc1cc(OC)cc(N(CCNC(C)C)c2ccc3ncc(-c4cnn(C)c4)nc3c2)c1 |  |  |  | 130, 133, 117, 137, 144% |  |  |  |
| C=CC(=O)N1CCN(c2nc(OCC3CCCN3C)nc3c2CCN(c2cccc4cccc(C)c24)C3)CC1CC#N (stereo unspecified) | 120, 92.5, 83.3, 73.1, 108, 104, 97.1, 96.2, 91.4, 96, 101% [2021-08] and 108, 88.5, 97.6, 93.9, 88.1, 103% [2021-09] | 96.2, 77, 82.6, 70.9, 97.6 (2×), 74.5, 85.2, 96.8, 83.8, 93.1% [2021-08] and 96, 100, 92.8, 95.8, 88.8, 96.5% [2021-09] | 92.4, 76, 95.9, 57.5, 88.7, 72.6, 92.7, 84, 82.5, 71.6, 83.8% [2021-08] and 88.2, 80.9, 81.1, 90, 82.6, 101% [2021-09] | 111, 0.75, 2.66, 2.39, 0.31, 2.34, 17.3, 30.6, 10.1, 5.77, 11% [2021-08] and 16.2, 20.6, 18.2, 24.9, 12.8, 24.7% [2021-09] |  | > 3.16 µM, 1.44 µM, 1.71 µM, 1.17 µM, 1.65 µM, 1.36 µM | viability, T/C (compound alone 0.0316 µM): 101 (2×), 93.2, 103 (3×), 69.4, 95.3, 106, 102, 93.7% [2021-08] and 103, 86.8, 99.2 (2×), 99.4, 92.8% [2021-09] |
| COC(=O)c1ccc2c(C(=Nc3ccc(N(C)C(=O)CN4CCN(C)CC4)cc3)c3ccccc3)c(O)[nH]c2c1 |  | 67, 81.4, 110, 113, 109% | 110, 96.7, 105, 113, 130% | 27.3, 22, 57.4, 14.3, 10.4% |  |  |  |
| COc1cc2nc(C)nc(NC(C)c3cc(N)cc(C(F)(F)F)c3)c2cc1OC1CCOC1 (stereo unspecified) |  | 74.2, 86.1, 79.5, 99.6, 86.4, 79, 68.4, 81.9, 71.5, 80.4, 82.3% [2021-08] and 86.5, 93.9, 91.1, 76.4, 83.3, 90.4% [2021-09] | 80.3, 78.3, 101, 88.9, 83.1, 72.5, 82.2, 72.6, 75.3, 86.1, 64.3% [2021-08] and 86.8, 90.7, 90.8, 91.8, 81.4, 101% [2021-09] | 81.6, 85, 102, 91.9, 85.1, 87.3, 86.2, 80.4, 86.5, 86.9, 81.5% [2021-08] and 90, 94.1, 81.6, 89.5, 88.6, 107% [2021-09] | 82.5, 82.8, 107, 12.1, 26.7, 3.7, 88.7, 61.1, 65, 75.7, 57.8% [2021-08] and 78.4 (2×), 81.3, 72.7, 79.3, 102% [2021-09] | > 10 µM, 5.79 µM, 6.31 µM, 5.06 µM |  |
| CNCc1ccccc1-c1csc(C(C)Nc2nc(C)nc3cc(OC)c(OC)cc23)c1 (stereo unspecified) |  |  | 96.1, 109, 101, 83.4, 102, 95, 82.2, 91.3, 90.7, 117, 91% [2021-08] and 112, 97, 97.6, 101, 120, 114% [2021-09] | 99.6, 0.56, 0.74, 0.13, 0.22, 0.81, 0.18, 0.28, 0.33, 1.19, 1.69% [2021-08] and 0.25, 0.55, 69.4, 0.97, 7.27, 0.21% [2021-09] |  | 1.73 µM and 5.47, 1.83, 1.76, 1.59 µM [2021-08] |  |
| CC1(C)CCC(CN2CCN(c3ccc(C(=O)NS(=O)(=O)c4ccc(NCC5CCOCC5)c([N+](=O)[O-])c4)c(Oc4cnc5[nH]ccc5c4)c3)CC2)=C(c2ccc(Cl)cc2)C1 |  |  |  | 88.8, 67, 105, 79.8, 108% | 20.5, 7.52, 20.7, 25.4, 45.5% |  |  |
| COc1cc2nccc(Oc3ccc(NC(=O)C4(C(=O)Nc5ccc(F)cc5)CC4)cc3)c2cc1OC |  |  |  | 82.7, 87.1, 93.5, 115, 100% |  |  | IC50: > 10 µM, 7.12 µM, 8.78 µM, 8.34 µM, 8.04 µM |
